Source: a collection of fitness landscapes (doi:10.1126/science.1257360)
Some of the results follow.

B1: PhoQ; a variant is named by its letters at X, in order, P23837 (parent)
chain: MKKLLRLFFPLSLRVRFLLATAAVVLVLSLAYGMVALIGYSVSFDKTTFRLLRGESNLFYTLAKWENNKLHVELPENIDKQSPTMTLIYDENGQLLWAQRDVPWLMKMIQPDWLKSNGFHEIEADVNDTSLLLSGDHSIQQQLQEVREDDDDAEMTHSVAVNVYPATSRMPKLTIVVVDTIPVELKSSYMVWSWFIYVLSANLLLVIPLLWVAAWWSLRPIEALAKEVRELEEHNRELLNPATTRELTSLVRNLNRLLKSERERYDKYRTTLTDLTHSLKTPLXXLQXXLRSLRSEKMSVSDAEPVMLEQISRISQQIGYYLHRASMRGGTLLSRELHPVAPLLDNLTSALNKVYQRKGVNISLDISPEISFVGEQNDFVEVMGNVLDNACKYCLEFVEISARQTDEHLYIVVEDDGPGIPLSKREVIFDRGQRVDTLRPGQGVGLAVAREITEQYEGKIVAGESMLGGARMEVIFGRQHSAPKDE

Variants of: B1
Assay: enrichment ratio after two sorts for PhoP signalling (ratio (wild type AVST 3.29)); higher = more functional
Conditions: with PhoP (E. coli)

Variant	enrichment ratio
NYML	≤ 0.25
AWGS	≤ 0.25
TSIG	≤ 0.25
TDIF	≤ 0.25
AEDK	≤ 0.25
NQWN	≤ 0.25
DPWF	≤ 0.25
YLQQ	≤ 0.25
ANWV	0.326
PMDW	≤ 0.25
IHCM	≤ 0.25
RYKN	≤ 0.25
RDCM	≤ 0.25
MMYC	≤ 0.25
TPHI	≤ 0.25
GTTG	≤ 0.25
VWKS	≤ 0.25
LISQ	≤ 0.25
EFKA	≤ 0.25
PWIM	≤ 0.25
EHGP	≤ 0.25
PGDL	≤ 0.25
DFCY	≤ 0.25
FTTW	≤ 0.25
VTPA	≤ 0.25

Variant	enrichment ratio
NNLK	≤ 0.25
MDIN	≤ 0.25
WAPD	≤ 0.25
HYDH	≤ 0.25
QPIP	≤ 0.25
LTVW	≤ 0.25
WEHY	≤ 0.25
LLAP	≤ 0.25
TFWN	≤ 0.25
EIFQ	≤ 0.25
ALTN	7.81
QIFQ	≤ 0.25
THFK	≤ 0.25
WFLL	≤ 0.25
ICCS	≤ 0.25
QQYY	6.44
NFRE	≤ 0.25
TRAS	≤ 0.25
MLIL	≤ 0.25
MIWP	≤ 0.25
DIIR	≤ 0.25
QFSN	≤ 0.25
SSCN	16.9
SRLL	10.3
ERTF	≤ 0.25

Variant	enrichment ratio
SVVW	≤ 0.25
INCN	≤ 0.25
IWFV	≤ 0.25
ACYW	≤ 0.25
VLML	≤ 0.25
FMYR	≤ 0.25
DCWV	≤ 0.25
WAHK	≤ 0.25
NLDP	≤ 0.25
YLDS	≤ 0.25
LEYN	≤ 0.25
DFDE	≤ 0.25
TMFK	≤ 0.25
MITF	8.42
DCNK	≤ 0.25
EMIS	≤ 0.25
VPVI	≤ 0.25
EHPR	≤ 0.25
EPYG	≤ 0.25
IAAD	≤ 0.25
TGRY	≤ 0.25
AAVC	≤ 0.25
VKTV	≤ 0.25
YSSG	0.26
HLGH	≤ 0.25

Variant	enrichment ratio
EHNN	≤ 0.25
HEYM	≤ 0.25
KLSD	≤ 0.25
WLIR	≤ 0.25
HVVF	≤ 0.25
IHKK	≤ 0.25
FTDE	≤ 0.25
HQEW	≤ 0.25
MPDQ	≤ 0.25
MFKW	≤ 0.25
HCVF	≤ 0.25
YKLT	≤ 0.25
GPLQ	≤ 0.25
PKEF	≤ 0.25
EIDE	≤ 0.25
NIRN	≤ 0.25
FQAD	≤ 0.25
IRWW	≤ 0.25
MPLT	≤ 0.25
RAIR	≤ 0.25
TVGE	≤ 0.25
GNGD	≤ 0.25
AAAI	1.63
RQYD	≤ 0.25
MFGH	≤ 0.25

Variant	enrichment ratio
RLKR	≤ 0.25
TVIQ	≤ 0.25
KAIR	≤ 0.25
SYSQ	≤ 0.25
KFNY	≤ 0.25
FANW	≤ 0.25
CFPC	≤ 0.25
WKWK	≤ 0.25
FYTC	≤ 0.25
SILI	4.12
YNVS	0.288
VHCH	≤ 0.25
NPPL	≤ 0.25
KHCQ	≤ 0.25
AWCK	1.52
VCNL	≤ 0.25
VMPC	≤ 0.25
MAFK	≤ 0.25
PVNA	≤ 0.25
EQYM	≤ 0.25
LGPA	≤ 0.25
KQCF	≤ 0.25
TKFI	9.39
TDVG	4.14
RTFN	≤ 0.25

Variant	enrichment ratio
HTAN	≤ 0.25
VDYM	≤ 0.25
KIGG	≤ 0.25
LRIL	≤ 0.25
GCNW	≤ 0.25
TCRC	≤ 0.25
IWMQ	≤ 0.25
IHWQ	≤ 0.25
QERH	≤ 0.25
TSGP	≤ 0.25
YRQW	≤ 0.25
WDRC	≤ 0.25
WTAM	≤ 0.25
WFDD	≤ 0.25
LTFA	≤ 0.25
LMEW	≤ 0.25
LPVK	≤ 0.25
HYFV	≤ 0.25
LPVW	≤ 0.25
HGSL	≤ 0.25
KFQM	≤ 0.25
ATKM	≤ 0.25
NEID	≤ 0.25
LPCG	≤ 0.25
ITCP	≤ 0.25

Variant	enrichment ratio
EESF	≤ 0.25
HRYC	≤ 0.25
QVVF	≤ 0.25
FIRR	≤ 0.25
SWLS	≤ 0.25
TWVR	≤ 0.25
IMCT	≤ 0.25
TCEP	≤ 0.25
GASS	≤ 0.25
DNRS	≤ 0.25
PTMK	≤ 0.25
IKQK	≤ 0.25
LDSR	≤ 0.25
TQIM	17.9
TPMK	≤ 0.25
KKLD	≤ 0.25
ESSH	≤ 0.25
VHEE	≤ 0.25
MGQR	≤ 0.25
AEHV	≤ 0.25
SECY	13.7
RLGF	≤ 0.25
TWDF	≤ 0.25
QQTL	≤ 0.25
KIEH	≤ 0.25

Variant	enrichment ratio
FTTC	≤ 0.25
DYLQ	≤ 0.25
SCRL	≤ 0.25
WETA	≤ 0.25
FDHS	≤ 0.25
EHPD	≤ 0.25
TWVC	≤ 0.25
SSDC	≤ 0.25
RPDV	≤ 0.25
LGHM	4.31
TYGC	3.63
NNCV	≤ 0.25
NYMV	≤ 0.25
RKVI	≤ 0.25
PSKL	≤ 0.25
TKVE	≤ 0.25
GMFY	≤ 0.25
KGPT	≤ 0.25
EPDV	≤ 0.25
DAHF	≤ 0.25
